# PMC5836133
# This is one part of the list. At the low end of the ranking the order means little.
# Test system: T1, GST-NbGlk1(82-244)
# T1 sequence: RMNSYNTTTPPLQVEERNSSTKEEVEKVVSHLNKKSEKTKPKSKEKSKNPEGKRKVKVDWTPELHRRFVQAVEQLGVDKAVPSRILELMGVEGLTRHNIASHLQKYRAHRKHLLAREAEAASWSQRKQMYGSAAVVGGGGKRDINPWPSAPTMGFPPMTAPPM
# Assay: protein-binding microarray;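 further: rank-based score ranging −0.5 to +0.5 with E above 0.45 taken as significant binding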
# Conditions: NbGlk1 is a Golden2-like transcription factor of Nicotiana benthamiana; high values mean tight binding; most listed sequences are background and not binding sites; double strand, one strand shown
row,Sequence,binding signal [E-score]
1,AACGTCCA,-0.231
2,AACGCTCT,-0.148
3,AAAGCCAG,-0.139
4,AAACCGTC,-0.156
5,AGCCTACA,-0.0732
6,ACTGTGGC,-0.0638
7,CAATCCAC,0.328
8,ATGCCACC,-0.125
9,CAGACATG,-0.0585
10,ACCAAGGC,-0.0872
11,ATGGCTTA,-0.132
12,ACCTATTG,-0.0927
13,AGATGCTA,0.0809
14,ACCTAACG,-0.115
15,ATCGCTCG,0.143
16,ACTATACG,-0.0191
17,ACTCGCCG,-0.0925
18,ACACAGGG,-0.103
19,AGCGTTTG,0.0812
20,ATTTGGCG,0.117
21,AGAAAGGG,-0.223
22,ATTTTGAA,0.147
23,CAAAAGAC,-0.106
24,AGATCGCC,0.353
25,AGGAGATC,0.382

row,Sequence,binding signal [E-score]
1,AATGCTTG,-0.119
2,ACGAACTC,-0.153
3,ATGGAATC,0.385
4,CAGAGCGG,-0.105
5,AATTCAAC,0.0273
6,AGTGACGC,-0.138
7,AGGGAATC,0.477
8,AAGCCCGT,-0.203
9,ATATGTCC,-0.0314
10,ACACCTCT,-0.16
11,ATGGGCTG,-0.119
12,ACCGACAA,0.0952
13,AATCGTGC,0.299
14,ACTTCCTG,-0.00564
15,ACAGCGGC,-0.205
16,CAACGACC,-0.142
17,AGCTTCCT,-0.255
18,AAAACTAA,0.0367
19,ACAATTTA,0.158
20,AGTAGTAT,0.149
21,AACAGCGA,-0.155
22,AGGGTCCA,-0.296
23,AGTAAGCC,-0.214
24,ATGGCGCC,-0.166
25,AATCGTAT,0.339

row,Sequence,binding signal [E-score]
1,AGGAACGA,-0.131
2,ACACTCCC,-0.0639
3,AAATGAGT,0.0408
4,AGTATTCA,0.0922
5,ATAGTAAG,0.0645
6,ACCTTATG,-0.0792
7,ACCAGGGC,-0.338
8,CAGCCTGA,-0.0999
9,ACCGCAAC,-0.082
10,AATTCTGG,0.129
11,AAAGCATT,-0.126
12,AGGCGTAC,-0.209
13,AGCGGTAG,-0.124
14,ACATCTAG,0.125
15,ATACGCGA,0.198
16,ACATGCGT,-0.145
17,CACTCTGG,-0.137
18,CACTTTAA,-0.0728
19,AGGCGTTA,-0.141
20,AATGGCGT,-0.0528
21,AGGTCTCC,-0.246
22,ATTGCAAA,0.212
23,ACCAGGTA,-0.149
24,AGGGTCGC,-0.357
25,AGTTAGTC,-0.149

row,Sequence,binding signal [E-score]
1,CAGAACTC,-0.128
2,ACACTGGG,-0.0798
3,AAAAACCT,0.0738
4,AGTGCAGC,-0.141
5,AGGCTAAT,-0.148
6,AGGAACAA,0.0141
7,ATACTATC,0.153
8,AACGTTGC,-0.156
9,ATTTCTAC,0.285
10,ACGTGCAC,0.0107
11,AATCGGGT,0.272
12,AGGTATCC,0.181
13,CAAAGACA,0.0167
14,CACTTGTA,0.0671
15,AAATTCCA,0.0908
16,AGATCTGA,0.332
17,ATTGTGGC,0.0648
18,AATAGGCC,-0.311
19,ATAAAGCG,-0.0173
20,AGGAGCCG,-0.119
21,ATAAAACC,0.0119
22,CAACTTCG,0.0133
23,ATGACCGC,-0.117
24,ATCGAATG,-0.00155
25,CAAAACAC,0.0261

row,Sequence,binding signal [E-score]
1,ATACGTGG,0.0802
2,AACTAGTC,-0.1
3,ACATACCT,0.0375
4,AACCCCTG,-0.068
5,AGTGAGTG,-0.00984
6,AAAATCCC,0.41
7,AACCACAA,-0.0453
8,ATTCGGTA,0.241
9,CACCACCA,-0.154
10,ATATTGGC,0.135
11,ACCATCTC,-0.0987
12,ATCTAGAG,0.238
13,AACTAAAC,0.019
14,ATAGGTTA,-0.0142
15,ACTCATAG,-0.0932
16,CAAGCTGC,-0.196
17,CACGTTAA,-0.0358
18,AAAGGGAA,-0.0446
19,AGCGCATA,0.0789
20,AAGGCGCC,-0.337
21,ACTTCAAT,0.128
22,AGAGCTTC,-0.249
23,ATAAGTGG,0.074
24,ACGTGCAT,-0.128
25,AACTCATG,-0.0847

row,Sequence,binding signal [E-score]
1,ATCTTTTC,0.289
2,CAGAGGTA,-0.0926
3,ATGCCAAG,-0.0549
4,AGGGGACC,-0.247
5,CAACGCTA,-0.148
6,AGCAGACT,-0.175
7,ACAATTCC,0.0828
8,AATTTTTC,0.163
9,AATGGTAG,0.0132
10,ACACGTGA,-0.0423
11,AATGATCG,0.072
12,AACCCCCC,-0.345
13,CAAACGGG,-0.0201
14,AATATATC,0.311
15,AGGACGAG,-0.284
16,ACACGTCG,-0.104
17,AGATGTAA,0.0451
18,ATGGCGGG,-0.221
19,AGGGTGAC,-0.0929
20,ACGTGGAA,-0.0175
21,AAATGAGG,-0.0177
22,ACGTTGGA,-0.0911
23,ACGCTCCA,-0.177
24,ACCTTTGC,-0.111
25,AGAATGTA,0.108

row,Sequence,binding signal [E-score]
1,AGTCCGCG,-0.183
2,AAACGGGT,-0.195
3,CAAACGCA,-0.0422
4,AGTGATAA,-0.0892
5,ACAGATAA,0.189
6,CAAGACGC,-0.144
7,AATGGCGG,-0.131
8,ATAGTTGA,0.0546
9,AGTTGGAA,0.0544
10,ATGGACCC,-0.252
11,AAGAGTCA,-0.0731
12,ATAGGCAA,-0.0435
13,ATACACGA,0.185
14,AGCTGGGG,-0.188
15,ATGGTCTG,-0.179
16,AAACCATT,-0.0754
17,CACGTCAC,0.0661
18,AGGGTTTC,-0.238
19,ACAAGGAT,0.227
20,ATCCGCTA,0.353
21,ATAAACTA,-0.00382
22,ATATCTCC,0.388
